# Experimental data: article PMC6919601, “Identification of Plasmodium dipeptidyl aminopeptidase allosteric inhibitors by high throughput screening” (PLoS ONE, 2019)
# The whole screen tested about 110,000 compounds, of which about 230 (0.21%) showed an effect of 50% or more. This is one part of the list.
# Target: DPAP1 (Plasmodium falciparum, UniProt Q8IIJ9)
# Assay: primary screen, percent inhibition; read by cleavage of a fluorogenic dipeptide substrate; higher = more effect of the substance
# Design: species or system P. falciparum D10 trophozoite lysates; single well
# 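Further: 30 min substrate incubation versus DMSO and 10 µM JCP410 controls.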
# DPAP1, sequence (Q8IIJ9 whole entry, looked up): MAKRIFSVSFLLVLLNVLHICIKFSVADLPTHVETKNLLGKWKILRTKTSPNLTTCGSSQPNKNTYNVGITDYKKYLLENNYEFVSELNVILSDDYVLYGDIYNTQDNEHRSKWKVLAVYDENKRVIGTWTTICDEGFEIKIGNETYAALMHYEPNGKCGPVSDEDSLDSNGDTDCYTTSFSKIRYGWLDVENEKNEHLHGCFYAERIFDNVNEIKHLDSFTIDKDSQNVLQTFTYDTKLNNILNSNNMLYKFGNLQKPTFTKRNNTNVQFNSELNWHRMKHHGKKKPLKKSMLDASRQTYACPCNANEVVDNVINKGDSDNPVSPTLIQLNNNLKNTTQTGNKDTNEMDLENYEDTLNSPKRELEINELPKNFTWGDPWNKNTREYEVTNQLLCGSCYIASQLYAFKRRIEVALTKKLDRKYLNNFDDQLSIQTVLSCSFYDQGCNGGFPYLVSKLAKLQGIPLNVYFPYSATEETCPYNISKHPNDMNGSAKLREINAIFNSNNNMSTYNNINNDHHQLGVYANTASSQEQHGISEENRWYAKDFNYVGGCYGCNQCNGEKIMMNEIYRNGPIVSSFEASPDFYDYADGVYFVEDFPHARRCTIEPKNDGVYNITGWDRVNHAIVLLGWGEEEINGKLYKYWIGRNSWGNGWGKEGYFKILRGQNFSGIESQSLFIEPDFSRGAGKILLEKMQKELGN
row,SMILES,% Inhibition @ 10 uM [%]
1,N#CC1=C(N)Oc2[nH]nc(C(F)(F)F)c2C1c1ccc(F)cc1 (centres unmarked),3.99
2,COc1ccc(CCNC(=O)CCN2C(=O)C3CC=CCC3C2=O)cc1OC (centres unmarked),-0.631
3,COc1ccc(S(=O)(=O)N2CCCC2)cc1,2.94
4,COc1ccc(Br)cc1/C=C1\N=C(C2CCCCC2)OC1=O,5.01
5,CCOC(=O)c1cnc(SCC(=O)O)nc1N,-1.91
6,O=C(Nc1sc2c(c1CNC1CCCCC1)CCCC2)c1ccccc1,-5.28
7,Cc1cccc(OCC(O)CN2CCCC2)c1 (centres unmarked),2.38
8,CC1CCc2c(C(=O)O)csc2C1 (centres unmarked),-3.53
9,COc1ccc2nc(N(CCN(C)C)C(=O)C3CCCCC3)sc2c1,-8.25
10,Cc1nn(-c2ccccc2)c2c1C1(C(=O)N(Cc3ccccc3)c3ccccc31)C(C#N)=C(N)O2 (centres unmarked),-7.3
11,O=C(NCc1ccco1)c1ccc(NS(=O)(=O)c2cccc(C(F)(F)F)c2)cc1,0.214
12,CS(=O)(=O)N(CC(=O)NCc1ccc(Cl)cc1)c1cccc(C(F)(F)F)c1,-9.25
13,COCCCNC(=O)Cn1c(=O)c2cccn2c2cccnc21,3.38
14,CCOc1cc(-c2cc(-c3ccc(F)cc3)nc(N)c2C#N)ccc1O,-9.4
15,COCCCNC(=O)c1cc(-c2cccs2)nc2ccccc12,-2.49
16,COCC(=O)N(C)C1(c2nnnn2-c2ccccc2)CCCCC1,1.03
17,Cc1ccc(CNC(=O)C(C)n2c3ccccc3c3cnn(C)c(=O)c32)cc1 (centres unmarked),-5.63
18,Cc1nn(CCC(=O)NCc2ccc(OC(C)C)cc2)c(=O)c2nn(-c3ccccc3)c(C)c12,-5.54
19,C=CCOc1c(Br)cc(/C=C2/NC(=O)N(Cc3ccccc3)C2=O)cc1OC,4.81
20,CN(Cc1ccco1)C(=O)c1cc(-c2ccccc2)[nH]n1,-2.21
21,O=C1/C(=C\c2cccs2)Sc2ccc3ccccc3c21,-0.053
22,O=C(CSc1nnnn1-c1ccccc1)c1ccccc1,-0.807
23,CCOc1cc(CO)ccc1OCc1ccc(Cl)c(Cl)c1,2.78
24,CCC(C)Nc1nc(NC(C)(C)C)nc(N2CCOCC2)n1 (centres unmarked),5.92
25,CCC1CCc2c(sc(NC(=O)c3ccc(Br)o3)c2C(=O)OC)C1 (centres unmarked),1.43

row,SMILES,% Inhibition @ 10 uM [%]
1,O=C(NCc1cccs1)c1ccc(CNS(=O)(=O)c2ccc(Br)cc2)cc1,-5.22
2,CN(C)CCNC(=O)COCc1cc(-c2ccc(F)cc2)on1,-2.69
3,Cn1c(NC(=O)Cc2ccc(F)cc2)nc2ccccc21,-2.47
4,CC1CCCCN1C(=O)c1cc(S(=O)(=O)N2CCCCC2)c[nH]1 (centres unmarked),-1.69
5,COc1ccc(OC)c(-c2nc(O)c3c(n2)Oc2ccccc2C3)c1,8.44
6,CCCN(CCC)CCCNC(=O)c1oc(=O)c2ccccc2c1-c1ccccc1,-1.54
7,COc1ccc(NC(=O)CN(C2CCCCC2)S(=O)(=O)c2ccc(C)cc2)cc1,-2.82
8,COc1ccc(NC(=O)CN(c2ccc(OC)c(Cl)c2)S(C)(=O)=O)cc1Cl,-5.13
9,O=C(CSc1nc2ccccc2s1)NCc1ccco1,4.01
10,O=C(Nc1cccc(C(F)(F)F)c1)OCc1ccncc1,5.42
11,Cc1ncsc1CCOC(=O)C12CC3CC(CC(C3)C1)C2,-1.97
12,O=C(O)c1nccnc1C(=O)Nc1cc(Cl)ccc1Cl,0.989
13,CC1=C(C(=O)Nc2ccc(F)cc2)C(c2ccc(C#N)cc2)n2nc(-c3cccs3)nc2N1 (centres unmarked),6.57
14,COc1cc(OC)c(NC(=O)COc2ccccc2OC)cc1Cl,-1.43
15,CCN(C1=C(Cl)C(=O)N(c2ccccc2)C1=O)c1ccccc1,-1.37
16,CCCNC(=O)c1c(Cl)nc(Cl)c(Cl)c1Cl,3.81
17,O=C(CC1CCOCC1)Nc1ccc(Cl)c(Cl)c1,-3.32
18,CC1CCCC(C)N1CC(O)COc1ccc(OCC(O)CN2C(C)CCCC2C)cc1 (centres unmarked),4.54
19,COc1ccc(-c2csc(Nc3ccc(C)c(C)c3)n2)cc1F,2.13
20,CCOC(=O)c1c(NC(=O)Cn2nc(C(F)(F)F)cc2C)sc2c1CCC(C)C2 (centres unmarked),-6.57
21,O=C(NCCCN1CCC(N2CCCCC2)CC1)c1cc(-c2ccccc2)c(N2CCCCC2)s1,-8.85
22,COc1cccc(C2C3=C(O)CCCC3=NC(C)=C2C(=O)Nc2cc(C)ccn2)c1OC (centres unmarked),-1.64
23,COc1ccc(C2C(C#N)=C(N)Oc3c2c(=O)oc2ccccc32)cc1Br (centres unmarked),-5.81
24,CCc1nn(C(C)C(=O)NCc2ccccn2)c(=O)c2cc3occc3n12 (centres unmarked),-2
25,Cc1ccccc1-n1c(S)nnc1-c1ccc(Cl)cc1Cl,1
